Data as given in paper PMC9974300.
These are yes or no findings as the source states them, for the method shown. For part of these data: In cells and extracts the contact can be indirect. Some results given as binding are weak or reduced against the parent protein; the word gives no strength.

Columns and labels:
[1] = target: T1, 2-oxoglutarate dehydrogenase complex subunit E3 (DLD), bovine (bovine (endogenous in bovine heart mitochondria)) (UniProt F1N206); assay: cross-linking; XL-MS of intact bovine heart mitochondria cross-linked with DSSO, PhoX or DMTMM (Lys-Lys and Lys-Asp/Glu cross-links); sample preparation in ref. 35
T1 sequence: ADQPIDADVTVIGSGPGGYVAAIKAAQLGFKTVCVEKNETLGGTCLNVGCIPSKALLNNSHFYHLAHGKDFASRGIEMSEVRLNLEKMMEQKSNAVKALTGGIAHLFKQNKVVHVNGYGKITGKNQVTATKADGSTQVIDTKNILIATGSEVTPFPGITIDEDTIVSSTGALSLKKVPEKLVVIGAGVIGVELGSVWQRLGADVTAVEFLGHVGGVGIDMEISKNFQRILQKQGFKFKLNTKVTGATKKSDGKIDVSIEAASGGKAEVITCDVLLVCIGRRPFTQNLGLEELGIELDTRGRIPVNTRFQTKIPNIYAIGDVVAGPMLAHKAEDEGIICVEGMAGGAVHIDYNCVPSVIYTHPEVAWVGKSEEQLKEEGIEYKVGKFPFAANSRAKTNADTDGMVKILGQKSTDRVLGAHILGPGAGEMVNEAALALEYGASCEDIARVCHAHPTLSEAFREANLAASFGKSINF

[2] = target: T1, 2-oxoglutarate dehydrogenase complex subunit E3 (DLD), bovine (bovine (endogenous in bovine heart mitochondria)); assay: native gel or EMSA; complexome profiling: bovine heart mitochondria, untreated or cross-linked (PhoX or DMTMM), separated by BN-PAGE (3 to 10%), gel slices read by mass spectrometry
[3] = target: T2, 2-oxoglutarate dehydrogenase complex subunit E2o (DLST), mouse (mouse (endogenous in mouse heart mitochondria)) (UniProt Q9D2G2); assay: cross-linking; XL-MS of mouse heart mitochondria, 1 mg/ml protein in MIB buffer, 0.5 mM DSSO, 45 min at 15°C; merged with earlier data of the laboratory (ref. 36)
T2 sequence: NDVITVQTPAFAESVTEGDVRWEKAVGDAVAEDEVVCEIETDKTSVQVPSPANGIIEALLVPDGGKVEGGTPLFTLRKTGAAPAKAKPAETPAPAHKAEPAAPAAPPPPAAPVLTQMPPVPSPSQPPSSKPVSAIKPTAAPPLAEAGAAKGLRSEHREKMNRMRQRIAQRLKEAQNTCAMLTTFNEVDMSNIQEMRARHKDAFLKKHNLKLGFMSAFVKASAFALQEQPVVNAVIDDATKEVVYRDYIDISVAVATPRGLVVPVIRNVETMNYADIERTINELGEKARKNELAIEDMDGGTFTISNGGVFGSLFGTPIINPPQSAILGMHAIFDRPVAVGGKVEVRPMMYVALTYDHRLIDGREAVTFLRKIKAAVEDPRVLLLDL

[4] = target: T3, 2-oxoglutarate dehydrogenase complex subunit E3 (DLD), mouse (mouse (endogenous in mouse heart mitochondria)) (UniProt O08749); assay: as above
T3 sequence: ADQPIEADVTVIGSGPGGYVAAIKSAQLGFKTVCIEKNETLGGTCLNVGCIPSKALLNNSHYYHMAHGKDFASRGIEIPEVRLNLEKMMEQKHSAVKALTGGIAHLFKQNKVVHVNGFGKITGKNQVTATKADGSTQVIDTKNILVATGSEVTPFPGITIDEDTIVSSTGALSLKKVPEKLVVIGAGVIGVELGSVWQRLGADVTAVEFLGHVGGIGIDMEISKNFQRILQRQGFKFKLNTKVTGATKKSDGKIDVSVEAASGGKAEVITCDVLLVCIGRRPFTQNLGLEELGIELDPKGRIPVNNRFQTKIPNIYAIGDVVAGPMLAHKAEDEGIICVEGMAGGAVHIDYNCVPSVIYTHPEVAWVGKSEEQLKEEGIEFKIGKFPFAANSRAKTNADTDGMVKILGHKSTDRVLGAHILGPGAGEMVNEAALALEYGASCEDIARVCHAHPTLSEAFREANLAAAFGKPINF

[5] = target: T4, 2-oxoglutarate dehydrogenase complex subunit E1o (OGDH), mouse (mouse (endogenous in mouse heart mitochondria)), Q60597; assay: as above; settings: remark: other sources report otherwise
T4 chain: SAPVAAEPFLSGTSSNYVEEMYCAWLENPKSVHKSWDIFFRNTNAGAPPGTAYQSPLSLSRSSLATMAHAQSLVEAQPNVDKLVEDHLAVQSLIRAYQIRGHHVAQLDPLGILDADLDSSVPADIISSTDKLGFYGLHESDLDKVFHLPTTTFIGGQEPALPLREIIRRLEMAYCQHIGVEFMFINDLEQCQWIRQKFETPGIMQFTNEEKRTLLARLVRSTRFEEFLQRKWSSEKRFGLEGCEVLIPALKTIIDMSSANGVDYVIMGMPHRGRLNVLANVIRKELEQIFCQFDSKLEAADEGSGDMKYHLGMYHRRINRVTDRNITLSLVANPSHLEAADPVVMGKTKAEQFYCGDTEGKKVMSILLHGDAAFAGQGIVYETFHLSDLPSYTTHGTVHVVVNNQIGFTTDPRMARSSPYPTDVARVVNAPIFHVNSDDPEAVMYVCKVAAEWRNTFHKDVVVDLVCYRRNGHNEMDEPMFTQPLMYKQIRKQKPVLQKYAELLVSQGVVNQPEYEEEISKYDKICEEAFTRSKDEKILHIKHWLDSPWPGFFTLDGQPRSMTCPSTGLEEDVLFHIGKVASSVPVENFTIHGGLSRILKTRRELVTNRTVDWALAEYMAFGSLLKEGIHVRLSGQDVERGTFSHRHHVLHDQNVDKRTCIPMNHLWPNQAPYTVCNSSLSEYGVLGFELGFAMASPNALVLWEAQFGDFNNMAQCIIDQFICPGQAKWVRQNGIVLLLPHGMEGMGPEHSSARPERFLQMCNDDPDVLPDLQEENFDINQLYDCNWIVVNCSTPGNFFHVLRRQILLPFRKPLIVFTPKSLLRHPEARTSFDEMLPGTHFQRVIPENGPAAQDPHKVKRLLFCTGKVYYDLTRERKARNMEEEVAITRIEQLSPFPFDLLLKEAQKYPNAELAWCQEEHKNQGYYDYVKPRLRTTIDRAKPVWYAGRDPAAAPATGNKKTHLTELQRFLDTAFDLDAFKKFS

B1: MRPS36, bovine (protein, UniProt P82908 1-103)
chain: MMGSKMASASRVVQVVKPHTPLIRFPDRRDNPKPNVSEVLRSAGLPSHTSSISQHSKGSKSPDWLMHQGPPDTAEMIKTLPQKYRRKLVSQEEIEFIQRGGPE
- binding [1]: binds
- binding [2]: binds

B2: 2-oxoglutarate dehydrogenase complex subunit E1o (OGDH), mouse (enzyme, UniProt Q60597 41-1023)
chain: SAPVAAEPFLSGTSSNYVEEMYCAWLENPKSVHKSWDIFFRNTNAGAPPGTAYQSPLSLSRSSLATMAHAQSLVEAQPNVDKLVEDHLAVQSLIRAYQIRGHHVAQLDPLGILDADLDSSVPADIISSTDKLGFYGLHESDLDKVFHLPTTTFIGGQEPALPLREIIRRLEMAYCQHIGVEFMFINDLEQCQWIRQKFETPGIMQFTNEEKRTLLARLVRSTRFEEFLQRKWSSEKRFGLEGCEVLIPALKTIIDMSSANGVDYVIMGMPHRGRLNVLANVIRKELEQIFCQFDSKLEAADEGSGDMKYHLGMYHRRINRVTDRNITLSLVANPSHLEAADPVVMGKTKAEQFYCGDTEGKKVMSILLHGDAAFAGQGIVYETFHLSDLPSYTTHGTVHVVVNNQIGFTTDPRMARSSPYPTDVARVVNAPIFHVNSDDPEAVMYVCKVAAEWRNTFHKDVVVDLVCYRRNGHNEMDEPMFTQPLMYKQIRKQKPVLQKYAELLVSQGVVNQPEYEEEISKYDKICEEAFTRSKDEKILHIKHWLDSPWPGFFTLDGQPRSMTCPSTGLEEDVLFHIGKVASSVPVENFTIHGGLSRILKTRRELVTNRTVDWALAEYMAFGSLLKEGIHVRLSGQDVERGTFSHRHHVLHDQNVDKRTCIPMNHLWPNQAPYTVCNSSLSEYGVLGFELGFAMASPNALVLWEAQFGDFNNMAQCIIDQFICPGQAKWVRQNGIVLLLPHGMEGMGPEHSSARPERFLQMCNDDPDVLPDLQEENFDINQLYDCNWIVVNCSTPGNFFHVLRRQILLPFRKPLIVFTPKSLLRHPEARTSFDEMLPGTHFQRVIPENGPAAQDPHKVKRLLFCTGKVYYDLTRERKARNMEEEVAITRIEQLSPFPFDLLLKEAQKYPNAELAWCQEEHKNQGYYDYVKPRLRTTIDRAKPVWYAGRDPAAAPATGNKKTHLTELQRFLDTAFDLDAFKKFS
- binding [3]: binds
- binding [4]: binds weakly

B3: 2-oxoglutarate dehydrogenase complex subunit E3 (DLD), mouse (enzyme, UniProt O08749 36-509)
chain: ADQPIEADVTVIGSGPGGYVAAIKSAQLGFKTVCIEKNETLGGTCLNVGCIPSKALLNNSHYYHMAHGKDFASRGIEIPEVRLNLEKMMEQKHSAVKALTGGIAHLFKQNKVVHVNGFGKITGKNQVTATKADGSTQVIDTKNILVATGSEVTPFPGITIDEDTIVSSTGALSLKKVPEKLVVIGAGVIGVELGSVWQRLGADVTAVEFLGHVGGIGIDMEISKNFQRILQRQGFKFKLNTKVTGATKKSDGKIDVSVEAASGGKAEVITCDVLLVCIGRRPFTQNLGLEELGIELDPKGRIPVNNRFQTKIPNIYAIGDVVAGPMLAHKAEDEGIICVEGMAGGAVHIDYNCVPSVIYTHPEVAWVGKSEEQLKEEGIEFKIGKFPFAANSRAKTNADTDGMVKILGHKSTDRVLGAHILGPGAGEMVNEAALALEYGASCEDIARVCHAHPTLSEAFREANLAAAFGKPINF
- binding [3]: binds

B4: MRPS36, mouse (protein, UniProt Q9CQX8 1-102)
chain: MGSKMASATRVVQVVKPHAPLIKFPNRRDKPKLSASEALGSAALPSHSSAISQHSKGSTSPDLLMHQGPPDTAEIIKSLPQKYRRKPMSQEEMEFIQRGGPE
- binding [3]: binds
- binding [4]: binds

B5: MRPS36, mouse, Q9CQX8 1-102 (protein)
chain: MGSKMASATRVVQVVKPHAPLIKFPNRRDKPKLSASEALGSAALPSHSSAISQHSKGSTSPDLLMHQGPPDTAEIIKSLPQKYRRKPMSQEEMEFIQRGGPE
- binding [5]: no binding

B6: 2-oxoglutarate dehydrogenase complex subunit E1o (OGDH), bovine (enzyme, UniProt Q148N0 41-1023)
chain: TAPVAAEPFLSGTSSNYVEEMYYAWLENPKSVHKSWDIFFRNTNAGAPPGTAYQSPLPLSPGSLSAVARAGPLVEAQPNVDKLVEDHLAVQSLIRAYQIRGHHVAQLDPLGILDADLDSSVPADIISSTDKLGFYGLDESDLDKVFHLPTTTFIGGQESALPLREIIRRLEMAYCQHIGVEFMFINDLEQCQWIRQKFETPGVMQFTNEEKRTLLARLVRSTRFEEFLQRKWSSEKRFGLEGCEVLIPALKTIIDKSSENGVDYVIMGMPHRGRLNVLANVIRKELEQIFCQFDSKLEAADEGSGDVKYHLGMYHRRINRVTDRNITLSLVANPSHLEAADPVVMGKTKAEQFYCGDTEGKKVMSILLHGDAAFAGQGIVYETFHLSDLPSYTTHGTVHVVVNNQIGFTTDPRMARSSPYPTDVARVVNAPIFHVNSDDPEAVMYVCKVAAEWRSTFHKDVVVDLVCYRRNGHNEMDEPMFTQPLMYKQIRKQKPVLQKYAELLVSQGVVNQPEYEEEISKYDKICEEAFARSKDEKILHIKHWLDSPWPGFFTLDGQPRSMTCPSTGLTEDILTHIGNVASSVPVEDFTIHGGLSRILKTRGELVKNRTVDWALAEYMAFGSLLKEGIHIRLSGQDVERGTFSHRHHVLHDQNVDKRTCIPMNHLWPNQAPYTVCNSSLSEYGVLGFELGFAMASPNALVLWEAQFGDFHNTAQCIIDQFICPGQAKWVRQNGIVLLLPHGMEGMGPEHSSARPERFLQMCNDDPDVLPDLKEANFDINQLYDCNWVVVNCSTPGNFFHVLRRQILLPFRKPLIIFTPKSLLRHPEARSNFDEMLPGTHFQRVIPEDGPAAQNPGNVKRLLFCTGKVYYDLTRERKARDMVEQVAITRIEQLSPFPFDLLLQEVQKYPSAELAWCQEEHKNQGYYDYVKPRLRTTISRAKPVWYAGRDPAAAPATGNKKTHLTELQRLLDTAFDLDAFKNFS
- binding [1]: no binding
